Experimental data taken from PubChem BioAssay AID1745853 (National Center for Advancing Translational Sciences (NCATS), 2022).
Some of the results follow. The main result of the screen is listed elsewhere. These columns were measured beside it and carry no call.

How the values were obtained:
Assay in all cases: Primary Screen for Target Class Profiling of Small Molecule Inhibitors of Methyltransferases
[1] = target: Glycine N-methyltransferase (Homo sapiens) (UniProt Q14749); settings: purified enzyme, MTase-Glo SAH luminescence; measured here: GNMT inhibition; at 40 µM; stronger effect = lower value
Excerpt: (§1) PI: Matthew D. Hall Ph.D. and Quinlin M. Hanson Ph.D.
(§2) National Center for Advancing Translational Sciences (NCATS)
(§3) National Institute of Health (NIH), Rockville, MD
(§4) Target class profiling (TCP) is a chemical biology approach amenable to investigating understudied biological targets. TCP is achieved by developing a generalizable assay platform and applying it to screen a curated set of compound libraries against representative members of a target class. Small molecule methyltransferases (SMMTase) are a subclass of methyltransferase that act on metabolites to modulate signaling pathways, metabolize xenobiotics, or balance the available methyl pool. We screened four curated libraries totaling 27,574 unique compounds against the SMMTases nicotinamide N-methyltransferase (NNMT), phenylethanolamine N-methyltransferase (PNMT), histamine N-methyltransferase (HNMT), glycine N-methyltransferase (GNMT), catechol O-methyltransferase (COMT), and guanidinoacetate N-methyltransferase (GAMT). The data generated by this TCP can be leveraged for informed tool molecule development. For example, in the associated publication we identified a chemotype of HNMT-selective inhibitors. Additionally, we identified a putative SMMTase-selective inhibitor with potential as a tool molecule for studying broader methyltransferase biology.
(§5) High-through put screening assays were developed at the National Center for Advancing Translational Science (NCATS) for the enzymes NNMT, PNMT, HNMT, GNMT, COMT, and GAMT. Enzymatic activity was measured as a function of SAM cofactor conversion using the MTase Glo kit (Promega) for all enzymes. All assays were performed in 1536-well format with substrates and SAM concentrations at KM values. Enzyme concentration and assay timing were optimized for 10-20% SAM conversion. Initial screening of 27,574 compounds was done as single-point assays using the highest compound concentration (40 uM). […] These compounds were replated in 11-point dose response and assayed against NNMT, PNMT, HNMT, GNMT, COMT, GAMT, and a counter-assay. The IC50 and efficacy (maximal response) values were determined for each dose-response curve. These values are also accounted for in the area under the curve (AUC) values.
(§6) PROTOCOL TABLE (as described by Inglese J, Shamu CE and Guy RK. 2007)
(§7) SEQUENCE No. (e.g., 1, 2, 3, etc.); […] (e.g., Cells, Incubation, Reagent, etc.); VALUE; DESCRIPTION.
(§8) 1; Reagent; 2 uL; SMMTase Enzyme (2x) in reaction buffer, columns 1- 48.
(§9) 2; Reagent; 1 uL; SAM (4x) in reaction buffer, columns 1-48.
(§10) 3; Controls; 23 nL; DMSO in column 4; sinefungin in DMSO (0 uM - 40 uM) in 7-point 1:2 dilution series (n = 2) in column 2.
(§11) 4; Compounds; 23 nL; Columns 5-48.
(§12) 5; Reagent; 1 uL; Substrate (4x) in reaction buffer, columns 2-48.
(§13) 6; Time; 20-30 min; Incubation.
(§14) 7; Reagent; 1 uL; MTase-Glo reagent (5X), columns 1-48.
(§15) 8; Time; 30 min; Incubation.
(§16) 9; Reagent; 5 uL; MTase-Glo Detection reagent, columns 1-48.
(§17) 10; Time; 30 min; Incubation, luminescence evolution.
(§18) 11; Detection; Luminescence; ViewLux uHTS Microplate Imager (PerkinElmer).
(§19) NOTES (numbers refer to Sequence numbers above)
(§20) 1, 2, 5. White Medium Binding Greiner 1536-well plates (Cat #789175-F, Greiner Bio-One, Monroe, NC); Reaction buffer: 50 mM Tris, pH 8.0, 3 mM MgCl2, 1 mM EDTA, 50 mM NaCl, 1 mM DTT, and 0.1 mg/mL BSA. Evaporation was prevented by covering assay plates with metal lids containing holes to allow gas diffusion.
(§21) 1. Six SMMTase were profiled: HNMT, GNMT, PNMT, COMT, NNMT, GAMT
(§22) 5. The corresponding substrate was used for each enzyme: HNMT - 5.3 uM Histamine; GNMT - >500 uM Glycine; PNMT - 16.2 uM Norephinephrine; COMT - 13.7 uM Norephinephrine; NNMT - 3.8 uM Nicotinamide; GAMT - 2.5 uM Guanidinoacetate.6, 8, 10. Room temperature
(§23) 6. Final reaction conditions: 10 nM COMT, 5 uM SAM, 15 uM norepinephrine, 50 mM Tris, pH 8.0, 3 mM MgCl2, 1 mM EDTA, 50 mM NaCl, 1 mM DTT, and 0.1 mg/mL BSA; refer to tables 2 and S1 for specific timing.
8. […]

[2] = target: Guanidinoacetate N-methyltransferase (Homo sapiens) (UniProt Q14353); settings: purified enzyme, MTase-Glo SAH luminescence; measured here: GAMT inhibition; at 40 µM; stronger effect = lower value
Excerpt: as §1, §2, §3, §4, §5, §6, §7, §8, §9, §10, §11, §12, §13, §14, §15, §16, §17, §18, §19, §20, §21, §22, §23
8. […]

[3] = target: Histamine N-methyltransferase (Homo sapiens) (UniProt P50135); settings: purified enzyme, MTase-Glo SAH luminescence; measured here: HNMT inhibition; at 40 µM; stronger effect = lower value
Excerpt: as §1, §2, §3, §4, §5, §6, §7, §8, §9, §10, §11, §12, §13, §14, §15, §16, §17, §18, §19, §20, §21, §22, §23
8. […]

[4] = target: Nicotinamide N-methyltransferase (Homo sapiens) (UniProt P40261); settings: purified enzyme, MTase-Glo SAH luminescence; measured here: NNMT inhibition; at 40 µM; stronger effect = lower value
Excerpt: as §1, §2, §3, §4, §5, §6, §7, §8, §9, §10, §11, §12, §13, §14, §15, §16, §17, §18, §19, §20, §21, §22, §23
8. […]

[5] = target: Phenylethanolamine N-methyltransferase (Homo sapiens) (UniProt P11086); settings: purified enzyme, MTase-Glo SAH luminescence; measured here: PNMT inhibition; at 40 µM; stronger effect = lower value
Excerpt: as §1, §2, §3, §4, §5, §6, §7, §8, §9, §10, §11, §12, §13, §14, §15, §16, §17, §18, §19, §20, §21, §22, §23
8. […]
% is set by controls: 0 for no effect and ±100 for the full control effect.

Compound	activity change, negative = inhibition [1] [%]	activity change, negative = inhibition [2] [%]	activity change, negative = inhibition [3] [%]	activity change, negative = inhibition [4] [%]	activity change, negative = inhibition [5] [%]
CCOCCCNc1nc2c(-c3ccccc3)nnn2c2ccccc12	-0.151	-1.03	-2.21	-5.37	-7.95
CN1CCN(CC(=O)N2c3ccccc3C(=O)Nc3cccnc32)CC1	2.82	7.57	12.5	-13.2	-7
CC(CN1C(=O)c2cc3sccc3n2CC1(C)C(=O)NC1CCCCC1)c1ccccc1 (configuration not stated)	-0.911	4.68	0.638	2.14	-2.34
Cc1ccc(CN2C(=O)c3cc(-c4ccco4)nn3CC2(C)C(=O)NC2CCCCC2)cc1 (configuration not stated)	-11.6	0.474	-6.16	-5.95	-7.1
O=C(c1ccsc1)N1CCC2(CCC2N2CCOCC2)CC1 (configuration not stated)	-1.38	-1.95	-0.059	-2.61	2.18
Cc1cccc(N2CCN(CCNC(=O)CCc3nnc4n(C)c(=O)c5ccccc5n34)CC2)c1C	-1	0	5.48	-2.77	-0.493
CCc1cc2c(cc3n2CC(C)(C(=O)NC2CCCCC2)N(Cc2ccccc2OC)C3=O)s1 (configuration not stated)	-0.955	3.55	3.49	0.713	-2.18
Cc1c(C(=O)Nc2ccc(N3CC(C)OC(C)C3)nc2)cccc1-c1ccc(OC(F)(F)F)cc1 (configuration not stated)	-10.4	–	2.32	–	–
O=C(C1CC1)N1CCOc2ccc(CN3CCCC3)cc2C1	-3.56	-0.57	-28.6	-4.48	-8.09
COc1ccc(OC)c(NC(=O)N2CCn3c(C)ccc3C2C(C)C)c1 (configuration not stated)	13.1	0	3.7	-3.57	2.81
CCNC1(C(N)=O)CN(c2nc(C)nc3c(-c4ccc(Cl)cc4)c(-c4ccccc4Cl)nn23)C1	-42	-9.23	3.95	-35.9	0.889
CCc1cc2c(cc3n2CC(C)(C(=O)NC2CCCCCC2)N(CCN2CCCCCC2)C3=O)s1 (configuration not stated)	0.156	4.78	-16.8	-15.2	-4.01
COc1cc(Cl)c(C)cc1N1C(=O)CSc2c(c3ccccc3n2C)C1C(=O)NCc1ccccc1 (configuration not stated)	6.27	4.17	4.13	2.96	0.182
O=C1CC2(CCN(S(=O)(=O)c3cccs3)CC2)Oc2ccccc21	-6.83	-2.12	0.155	-19.1	-7.03
O=C(NCC(=O)N1CCOCC1)c1cccc(-c2ccsc2)c1	-0.15	-0.889	-0.958	-0.515	-2.71
CC1(C(=O)NC2CCCCCCC2)Cn2c(cc3sccc32)C(=O)N1CCCN1CCCCC1 (configuration not stated)	5.76	2.26	-3.77	4.48	5.13
CC1(C)CC[C@]2(CO[C@@H]3O[C@H](CO)[C@@H](O)[C@H](O)[C@H]3O)[C@@H](O)C[C@]3(C)C(=CCC4[C@@]5(C)CC[C@H](O[C@@H]6O[C@H](CO[C@@H]7O[C@H](CO[C@@H]8OC[C@@H](O)[C@H](O)[C@H]8O)[C@@H](O)[C@H](O)[C@H]7O)[C@@H](O)[C@H](O)[C@H]6O)C(C)(C)C5CC[C@]43C)[C@@H]2C1 (some centres not stated)	-6.38	-12.2	0.423	-17.7	-1.62
